Results as given in PubChem BioAssay (NCI).
A structure can be active in one record and inactive in another.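 Negative percent growth values reflect cell death: -40 means 40% of the cells present at the start died, and -100 means all died.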 The source holds more than one record for some entries. The list is limited to them. Rule for the calls: active = growth percent below 10; inactive = the rest. There may be further records. These are repeated runs of one drug, at its own concentration, as given; one value stands for one run. Counts like (3×) stand for listed records that agree.

System: HS 578T breast
Experiment: NCI-60 one-dose screen, 48 h (100 = growth as untreated, 0 = no growth, -100 = all killed)
Conditions: 0.25 µM

Compound: COc1cccc2c1C(=O)c1c(O)c3c(c(O)c1C2=O)C[C@@](O)(C(=O)CO)C[C@@H]3OC1CC(N)C(O)C(C)O1 (stereo not given in full)
- growth (runs of 2008): inactive: 74.8, 56, 59.7, 63.7, 77.5, 71, 70.8, 64.8, 78.7, 55.5, 62.4, 47.1, 48, 33.7, 49, 82, 79.2, 51.2, 40.2, 51.5, 62.1, 40.5, 60.1, 29.9, 38.4, 108, 50.1, 16.3, 12.8, 44.1, 13.1, 73.1, 42.7, 26.7, 33.5, 36, 58.3, 54.5, 46.5, 68.8, 63.8 (2×), 66.9, 82.9, 45.7, 53.9, 54.2, 36.9, 69.3, 77.3, 40.9% and active: 9.92%, -8.03%
- growth (runs of 2009): inactive: 59.7, 25.6, 54.6, 63.9, 65.5, 71.8, 51.8, 60.8, 83, 72.7 (2×), 70.2, 55.7, 51.9, 67.7, 70.3, 81.4, 57.9 (2×), 47.2, 52.5, 57.3 (2×), 35.9, 54.5, 73.2, 56.7, 67.8, 63.5, 49 (2×), 76.9, 52.1, 77.5 (2×), 56.6, 50.6 (2×), 53.8, 78.7, 54.2, 58.2, 83.8, 81.1, 68.9, 67.9, 43.5, 84.4, 55, 37.5, 64.3, 47.4, 71.2, 69.7, 60.5, 55.1, 65.3%
- growth (runs of 2010): inactive: 69.9, 69.6, 62.5, 77.1, 57.8, 66.7, 39.4, 66.2, 60.5, 74, 71.2, 63.7, 63.9, 56.5, 69.3, 77.2, 70.3, 44.6, 70.4, 78.3 (2×), 87.5, 86.7, 72.1 (2×), 78.4, 49.4, 77.4, 55.1, 92.3, 74.2 (2×), 66.9, 54.9, 83.7, 52.6, 65.4, 46.8, 62.4, 58.4, 70.6 (2×), 75.6, 53.8, 98.8, 73.8, 64.3, 69.8, 65.5, 79.6% (2×)
- growth (runs of 2011): inactive: 72.1, 95.3, 71.9, 82.7, 91, 89.3, 85.8, 76.7, 77.4 (2×), 86.6, 89.8, 92.8, 78.1, 72.7, 76.4, 91.9, 76.8, 76.1, 87.5, 83.4, 82.4, 72.5, 75.9, 83.5 (2×), 75.5, 73, 71.4, 61.6, 79.1, 64.8, 67.5, 59.9, 86.9, 81.2, 67.1, 68.7, 67.9, 69.9, 66.2, 71.1, 57.3, 75.2, 67.8, 83.1, 67.3, 73.2, 57.8, 71.2, 70.5, 73.9, 75%
- growth (runs of 2012): inactive: 66.6, 46.8, 62.1 (2×), 57, 44.4, 69.8 (2×), 61.8, 72, 68.5, 73.3, 66.5, 41.1, 58.3, 60.5, 68.6, 70.9, 59.2, 63.7, 69.3, 67.7, 68.2, 72.2 (2×), 69.7, 74.1, 78.7, 69.1 (2×), 82, 68.3, 73.2, 63.1, 68.9, 73, 79.5 (2×), 63.3, 76.1, 76.8, 74.8, 75.8, 83.4, 81.6, 91.9, 83, 90.8, 87.7, 85.8, 95.2, 64, 66.2, 73.1, 73.9, 71.4, 75, 63.4, 41.4%
- growth (runs of 2013): inactive: 66.8, 69.5 (2×), 73.2, 69.6, 82.8, 77.6, 73.3 (2×), 80, 71.4, 81.2, 78.2 (2×), 70.6, 75.3, 83.4, 76.7, 79, 77, 77.4, 74.9, 68.4 (2×), 72.6, 62.1, 68.3, 62.4, 69.4 (2×), 81.7, 66.9, 70.4, 64.5, 75.5, 75.9, 86.9, 88.8, 75.8, 74, 79.2, 80.2, 72.5, 74.8, 74.3, 75.2, 65.3, 64.2 (2×), 66.4, 55.6, 53.2, 47.3, 42.8, 64, 61.7, 57.4, 72, 68.2, 57.2 (2×), 60 (2×), 67.1, 66.1%
- growth (runs of 2014): inactive: 59.8, 55.9, 71.7 (2×), 66.6 (3×), 57.1, 62.3 (2×), 57, 53.1, 48, 66 (2×), 63.9, 75.8, 54.1, 67.8, 57.7, 69.9 (2×), 65.3 (3×), 52.8, 71.3 (2×), 68.2 (2×), 56.8, 67.7, 73.9 (3×), 66.1 (2×), 65.2, 66.3, 71.2, 57.6, 63.1, 81.4, 79.2, 65.4, 67.3, 74.4, 79.6 (2×), 75.1 (2×), 80.1 (2×), 72.2, 80 (2×), 77, 71.4, 60, 63.8, 63.6, 78.2, 67.2, 80.4, 70.2, 75.2, 71.1, 75.9, 74.9, 76.8%
- growth (runs of 2015): inactive: 83.2 (2×), 77.8, 68.3, 80.2, 76.6, 80.8, 82.8, 86.4, 70, 73.8, 74.3, 78.2 (2×), 72.2, 75.4, 66.7, 63.5, 44.3, 50.7, 65.2, 57.8, 80.4, 71.7, 71, 52 (2×), 58, 53.9, 77.5, 64.8 (2×), 68.2, 53.6, 64.4, 63.6, 73.1, 64.6 (3×), 83.6, 57.7, 62.1 (2×), 71.1 (2×), 66.6, 70.4, 51.2, 34, 53, 62.5, 54.9, 59.2, 68.6, 75.6, 69.1, 79.4, 82.6, 80, 67.5, 74, 61.2, 60.6, 45.4, 62, 62.2, 65.3, 54.5, 77.6, 82.3, 72.5, 78.3, 79.6%
- growth (runs of 2016): inactive: 68.7, 62.9, 70.5 (3×), 71.7, 73.4, 70.6, 82.8, 76.5, 76.9, 79.8 (2×), 66, 69.1, 68.6, 68.4, 53, 70.4, 78.2 (2×), 62.1, 75.1 (3×), 73.3, 66.9 (2×), 79.6 (2×), 68.3, 77.2, 71.3, 64.8, 69.5, 60.6, 77.1, 65.5, 77.5, 67.8, 70.2, 81.9, 69.4, 84, 71 (3×), 86.1, 67.5, 71.2, 69.9, 73.2, 74.8, 79, 79.2 (2×), 71.4, 75.4, 80.3, 81.7, 75.5, 74.2, 66.2, 80.1, 71.9, 86.4, 69.8, 81.2, 78.9, 68, 82.7, 76.8, 77.3, 78.3, 73.9, 90.6, 81.1%
- growth (runs of 2017): inactive: 82.7, 74.1, 68.9, 63.8, 69.3 (2×), 77.5, 67.9, 70.8, 69.9 (2×), 72.2, 78.2, 73.3, 73.9, 72.6 (2×), 66.9 (3×), 53.2 (2×), 59.8, 66.8, 68.3 (3×), 56.2, 58, 62.9, 66, 54.1, 71.1 (3×), 70, 65.4, 72.9, 61 (2×), 58.1, 62.5 (2×), 74.3 (2×), 68.4 (3×), 67.3, 71.3, 76.8, 63.7, 71.2, 64.3, 62.2 (2×), 70.9, 71.7, 66.1, 70.2 (2×), 64.4, 66.3, 67.2, 74.8, 66.6, 67.1, 73.8, 69.8, 66.2, 65.9, 56.9, 74.4, 56.3 (2×), 58.9%
- growth (runs of 2018): inactive: 65.3, 61.6, 53.8, 55, 49.3, 56, 58.2, 73.4, 69.1, 59.7, 57.5 (2×), 59.9, 71.1, 70.3, 66.7, 66.8, 63.7, 57.7, 56.6, 62, 64.1, 55.7, 57.2 (2×), 66.5, 65.5, 64.5, 73.8, 62.3, 67.7, 60.6, 57.3, 58, 55.1, 62.2, 74.2, 60.4, 59.8, 55.2, 50.5, 51.8, 57.4, 60.2, 69.5, 34%
- growth (runs of 2019): inactive: 56.1, 52.6, 39.2, 44.9, 24.9, 54, 44.3, 41.1, 48.7, 47.5, 58, 54.8, 63.5, 68.7 (2×), 61.8, 60.3, 58.1, 47, 64.2, 54.6, 49.8, 51.5, 52.1, 44.4, 55.6, 59.1, 58.3, 39.9, 49.4, 53.5, 62.1, 61.2, 66.3, 55.7, 66.2, 71.1, 66.6, 75.5, 72, 64.5, 70.6, 75, 68.8, 52%
- growth (runs of 2020): inactive: 55.8, 56.7, 73.2 (2×), 67.1, 71.2, 61.2, 59.5, 70.3, 70.5 (2×), 62.5, 68.2 (2×), 55.6, 82.6, 57.4, 66.3, 73.1, 69.7, 56.9, 65.4, 74.2, 66.2, 56.6%
- growth (runs of 2021): inactive: 60.5, 64.8, 63.3, 69.7, 54.9, 64.1 (2×), 61.3 (2×), 64.2, 55.4, 50.9, 57.1 (2×), 65.2, 63.7, 75, 67.7, 68.6, 59.1, 57.7, 58, 64.5, 59.5, 55.2, 59.7, 62, 60.8, 57.6, 55.6, 50.2, 52.7, 51.5, 66.5 (2×), 66.3, 57.4, 75.1, 80.4, 72.8, 76.9, 55.9, 50.1, 82.6, 74.1, 75.2%
- growth (runs of 2022): inactive: 28.4, 34, 52.9, 53.8, 50.1, 35.5, 50.9, 64.6, 67.5, 51.7, 54.9, 62.1 (2×), 68.2, 73.2 (2×), 74, 64.4, 38.7, 73.3 (2×), 78.3, 70.9, 52.5, 71.4, 71.3% and active: -2.54%
